{"source": "PubChem BioAssay AID1347120", "about": "(National Center for Advancing Translational Sciences (NCATS), 2019)", "note": "Out of some 390,000 compounds screened, about 930 (0.24%) were called active. The inconclusive results got no clear call from the source; some entries with a clear call stand among them for comparison. Calls follow the shape of the dose curve; as a rule, active = well fitted activation curve with a large enough effect; inconclusive = small, poorly fitted or top-dose-only effect; inactive = no such curve, though single readings can be large or run the other way. A potency beside an inconclusive call is a rough fit, not a confirmed value. Potency is read from the fitted curve at half-maximal effect; tags tell the direction and shape of the fitted curve."}
{"test": "qHTS for Suppressors of FUS Proteinopathy: Primary screen using FUS-linked yeast assay; also: nearly all actives have a fitted effect of over 55% in size;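 as to growth rescue (activation): plate controls were DMSO vehicle for no effect and reference control for full effect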", "conditions": "S. cerevisiae FUS-expressing, OD600, 24 h; Potency: growth rescue; growth rescue (activation): at 76.6 µM (top of the series)", "outline": "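Steps: raffinose overnight preculture; dilution to OD 0.005 in 2% galactose minimal medium; compound addition (concentration series); 24hr at 30C, 99% humidity; absorbance read at 600 nm.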"}
{"compound": "COc1ccc(NC(=O)c2cc(-c3cc(Cl)ccc3OC)n[nH]2)c(C)c1", "Potency": "inconclusive: 25.1 µM [activator, single point]"}
{"compound": "O=C(CSc1nnc(-c2ccccn2)n1-c1ccc(Cl)cc1)Nc1ccc(S(=O)(=O)Nc2nccs2)cc1", "Potency": "inconclusive: 7.08 µM [activator, partial curve]"}
{"compound": "CC(=O)C1CCC2C(CCC3=CC(=O)CCC32)C1", "note": "(stereo unspecified)", "growth rescue (activation)": "inactive: 2.62%"}
{"compound": "COc1ccc(-c2nc3ccc(Br)cn3c2Cc2ccccc2C(F)(F)F)cc1OC", "Potency": "inconclusive: 35.5 µM [activator, single point]"}
{"compound": "C/C(=N\\NC(=S)NCc1ccccc1)c1ccc2c(c1)OCCO2", "growth rescue (activation)": "inactive: 7.44%"}
{"compound": "C=CCNc1nc(Nc2ccc(-c3nc4ccccc4o3)cc2)nc(N2CCOCC2)n1", "growth rescue (activation)": "inconclusive: -45.7% [activator]"}
{"compound": "CCOC(=O)c1c(C)[nH]c(C2=NNC(=Nc3ccccc3)SC2)c1C", "Potency": "inconclusive: 28.2 µM [activator, single point]"}
{"compound": "Cc1cc(NC(=S)N(Cc2cccc(Br)c2)CC2CCC(C(=O)O)CC2)ccc1Cl", "note": "(stereo unspecified)", "Potency": "inconclusive: 50.1 µM [activator, single point]"}
{"compound": "Cc1ccc(N(C(=O)Cc2c[nH]c3ccccc23)C(C(=O)NC2CCCCC2)c2ccco2)cc1", "note": "(stereo unspecified)", "Potency": "inconclusive: 14.1 µM [activator, partial curve, poor fit]"}
{"compound": "Cc1ccc(C)c(N2CCN(CCCNC(=O)c3cnn(-c4ccccc4)c3C3CCN(C(=O)OC(C)(C)C)CC3)CC2)c1", "Potency": "inconclusive: 14.1 µM [activator, partial curve]"}
{"compound": "C[C@H](CO)N1C[C@H](C)[C@H](CN(C)Cc2ccc(-c3ccccc3)cc2)Oc2ccc(NS(=O)(=O)c3ccccc3)cc2CC1=O", "Potency": "inconclusive: 15.8 µM [activator, partial curve]"}
{"compound": "O=C(NCc1ccccc1Cl)c1c2c(nc3ccccc13)C(=O)N(C1CCCCC1)C2", "growth rescue (activation)": "inactive: 4.76%"}
{"compound": "COc1ccc(-c2nnc(NC(=O)C(C)C)o2)cc1", "growth rescue (activation)": "inactive: -14.4%"}
{"compound": "O=C(NC1CC1)c1cccc(NC(=O)C2CCN(S(=O)(=O)c3cccc(C(F)(F)F)c3)CC2)c1", "Potency": "inconclusive: 28.2 µM [activator, single point]"}
{"compound": "C#CCOCCOCCOCCNc1nc(N2CCN(C(=O)CCCCCCCCCCNC(=O)Cn3cc(C[C@@H](C)O)nn3)CC2)nc(N2CCN(C(=O)CCCCCCCCCCNC(=O)[C@@H](CCSC)n3cc(CCO)nn3)CC2)n1", "Potency": "active: 3.98 µM"}
{"compound": "CCOC(=O)c1ccc(N2C(=O)C(CC(=O)NC)N(CCc3ccc(OC)c(OC)c3)C2=S)cc1", "note": "(stereo unspecified)", "Potency": "inconclusive: 31.6 µM [activator, partial curve, poor fit]"}
{"compound": "O=C(COC(=O)c1ccccc1O)NCCC1=CCCCC1", "Potency": "inconclusive: 50.1 µM [activator, single point]"}
{"compound": "O=C1NC[C@@H](CCCCN2C[C@H](Cc3ccccc3)N(CCC3CCCCC3)C(=O)C2=O)N(CCc2ccccc2)C1=O", "Potency": "inconclusive: 39.8 µM [activator, single point]"}
{"compound": "CCOc1ccc(N(C)S(=O)(=O)c2ccc(C)c(C(=O)N3CCN(Cc4ccc5c(c4)OCO5)CC3)c2)cc1", "growth rescue (activation)": "inactive: 17.4%"}
{"compound": "CC(C)(C)c1ccc(-n2ncc3c2CCCC3NC(=O)CCN2CCCCC2=O)cc1", "note": "(stereo unspecified)", "Potency": "inconclusive: 15.8 µM [activator, partial curve]"}
{"compound": "O=C(Nc1ccc2c(c1)OCO2)c1cc(C2CCCCN2S(=O)(=O)c2cccs2)on1", "note": "(stereo unspecified)", "growth rescue (activation)": "inactive: 29.6%"}
{"compound": "CCOC(=O)[C@@]12CN(C(=O)OC(C)(C)C)CC=C1N(Cc1ccc(OC)cc1)C(=O)[C@H]2CC(=O)NCc1ccccc1", "Potency": "inconclusive: 15.8 µM [activator, partial curve, poor fit]"}
{"compound": "Cc1ccc(Cl)cc1N1CCN(C(=O)c2ccc(CS(=O)c3ccccc3)o2)CC1", "note": "(stereo unspecified)", "Potency": "inconclusive: 39.8 µM [activator, single point]"}
{"compound": "CC(=O)c1ccc(N2CCN(S(=O)(=O)c3c(C)[nH]c(=O)[nH]c3=O)CC2)cc1", "Potency": "inconclusive: 20 µM [activator, partial curve]"}
{"compound": "Cc1ccc(NC(=O)CCC(=O)NNC(=S)Nc2ccccc2)c(C)c1", "growth rescue (activation)": "inactive: 6.59%"}
{"compound": "COc1ccc(-c2nnc(NC(=O)CS(=O)(=O)c3ccc(Cl)cc3)o2)c(OC)c1", "Potency": "inconclusive: 31.6 µM [activator, single point]"}
{"compound": "O=C(COC(=O)c1ccc(Sc2ncn[nH]2)c([N+](=O)[O-])c1)Nc1cccc(Cl)c1F", "growth rescue (activation)": "inactive: 2.29%"}
{"compound": "COc1ccc(NS(=O)(=O)c2ccc(-c3cnc(C4CC4)o3)cc2)cc1Cl", "Potency": "inconclusive: 28.2 µM [activator, single point]"}
{"compound": "O=C(/C=C/c1ccco1)Nc1nc(-c2ccccn2)cs1", "Potency": "inconclusive: 28.2 µM [activator, single point]"}
{"compound": "O=C(NC(c1ccccc1)c1ccccc1)c1cccc(S(=O)(=O)NCc2ccccc2)c1", "Potency": "inconclusive: 10 µM [activator, partial curve]"}
{"compound": "COCCCNC(=O)c1sc2nc(C)c(C(=O)Nc3ccc(C)cc3C)c(-c3ccccc3Cl)c2c1N", "Potency": "inconclusive: 39.8 µM [activator, single point]"}
{"compound": "NC(Cc1ccc(Cl)cc1)c1csc(NC(=O)Nc2ccccc2)n1", "note": "(stereo unspecified)", "Potency": "inconclusive: 31.6 µM [activator, single point]"}
{"compound": "COc1ccc(-c2cnc(OC(C)(C)C)nc2OC(C)(C)C)cc1OC", "Potency": "inconclusive: 7.94 µM [activator, single point]"}
{"compound": "COC(=O)[C@]12C[C@H](CC(=O)N3CCSCC3)C(=O)N(CCc3ccc(OC)c(OC)c3)C1=C[C@H](C1CCCC1)O[C@@H]2C", "Potency": "inconclusive: 31.6 µM [activator, partial curve, poor fit]"}
{"compound": "Cc1ccc(C)c(S(=O)(=O)N2CCN(C(=O)CCc3c[nH]c4ccccc34)CC2)c1", "Potency": "inconclusive: 28.2 µM [activator, partial curve, poor fit]"}
{"compound": "CCn1c(C(=O)NCc2ccccc2Br)cc2oc3ccccc3c21", "growth rescue (activation)": "inactive: -9.5%"}
{"compound": "O=C(Nc1ccccc1)c1cccc2c(-c3cccnc3)coc12", "growth rescue (activation)": "inactive: -12.6%"}
{"compound": "COC(=O)C(C(=O)OC)[C@H]1C=C[C@@H](C(=O)NS(=O)(=O)c2ccc(C)cc2)N(C(C)=O)C1", "growth rescue (activation)": "inactive: -2.2%"}
{"compound": "COCCCNC(=O)C[C@H]1C[C@@]2(C(=O)OC)C(=C[C@H](COCc3ccccc3)O[C@@H]2C)N(Cc2ccc(Cl)cc2Cl)C1=O", "Potency": "inconclusive: 20 µM [activator, partial curve, poor fit]"}
{"compound": "COc1ccc(/C=C/C(=O)NCC(=O)N/N=C(/C)c2ccc(Cl)cc2)cc1", "Potency": "inconclusive: 3.16 µM [activator, full curve]"}
{"compound": "O=C(NCCCN1CCCC1)c1ccc2c(c1)N(Cc1ccccc1F)C(=O)c1ccccc1S2=O", "note": "(stereo unspecified)", "Potency": "inconclusive: 12.6 µM [activator, partial curve]"}
{"compound": "O=C(Nc1ccc([N+](=O)[O-])cc1)N1CCCCCC1", "growth rescue (activation)": "inactive: 10.8%"}
{"compound": "CCOC(=O)C1CCCN(C2CC(=O)N(c3ccc(N4C(=O)CC(N5CCCC(C(=O)OCC)C5)C4=O)cc3)C2=O)C1", "note": "(stereo unspecified)", "growth rescue (activation)": "inactive: 9.01%"}
{"compound": "CCS(=O)(=O)N1CCc2cc(C(=O)Nc3cccc(C(C)=O)c3)ccc21", "growth rescue (activation)": "inactive: 15%"}
{"compound": "COc1ccc(C(=O)NCC(=O)OCC(=O)N2N=C(c3ccc(Cl)cc3)CC2c2ccco2)cc1OC", "note": "(stereo unspecified)", "Potency": "inconclusive: 25.1 µM [activator, single point]"}
{"compound": "CCOc1cc(C2C(C(=O)c3ccco3)=C(O)C(=O)N2CCc2ccccc2)ccc1O", "note": "(stereo unspecified)", "Potency": "inconclusive: 39.8 µM [activator, partial curve, poor fit]"}
{"compound": "O=S(=O)(N1CCCCC1)N1CCN(CC(O)COc2ccc3cc(Br)ccc3c2)CC1", "note": "(stereo unspecified)", "Potency": "inconclusive: 20 µM [activator, partial curve, poor fit]"}
{"compound": "COc1ccc(C2=NS(=O)(=O)N(C)C(C(=O)N(C)Cc3ccccc3)=C2)cc1OC", "Potency": "inconclusive: 25.1 µM [activator, single point]"}
{"compound": "COc1ccc(C(=O)OCc2ccc(C)cc2)cc1S(=O)(=O)N1CCOCC1", "Potency": "inconclusive: 31.6 µM [activator, single point]"}
{"compound": "CCCCCCNC(=O)OC12CN(C(=O)OC(C)C)N(C(=O)OC(C)C)CC1(O)CN(S(=O)(=O)c1ccc(C)cc1)C2", "note": "(stereo unspecified)", "Potency": "inconclusive: 28.2 µM [activator, single point]"}
{"compound": "CN(C)S(=O)(=O)c1ccc2c(c1)nnn2CCNC(=O)Nc1ccc(Cl)cc1", "growth rescue (activation)": "inactive: 32.2%"}
{"compound": "COc1ccc(C2CC(c3c(-c4ccccc4)c4cc(Cl)ccc4[nH]c3=O)=NN2S(C)(=O)=O)cc1", "note": "(stereo unspecified)", "growth rescue (activation)": "inactive: 7.52%"}
{"compound": "COc1ccc(OC)c(S(=O)(=O)Nc2c(F)cccc2F)c1", "growth rescue (activation)": "inconclusive: 59% [activator]"}
{"compound": "Cc1ccc(C2(C)NC(=O)N(CC(=O)N3c4ccccc4NC(=O)CC3C)C2=O)cc1", "note": "(stereo unspecified)", "growth rescue (activation)": "inactive: 6.56%"}
{"compound": "CCOc1ccc(OCC)c(NC(=O)c2cnc(SC)nc2-c2ccccc2)c1", "growth rescue (activation)": "inactive: 1.25%"}
{"compound": "C[C@]12CC[C@H]3[C@@H](CCC4=CC(=O)CC[C@@]43C)[C@@H]1CC[C@@H]2C(=O)CO", "growth rescue (activation)": "inactive: -10.7%"}
{"compound": "CCN1CCc2nc(NC(=O)C(c3ccccc3)c3ccccc3)sc2C1", "growth rescue (activation)": "inconclusive: 66.5% [activator]"}
{"compound": "Cc1ccc(Cl)cc1N1CCN(C(=O)c2cc(S(=O)(=O)N3CCCC3)c[nH]2)CC1", "Potency": "inconclusive: 35.5 µM [activator, single point]"}
{"compound": "COc1ccc(-c2cc(C(=O)OCC(=O)N(C)C3CCS(=O)(=O)C3)c3ccccc3n2)cc1OC", "note": "(stereo unspecified)", "growth rescue (activation)": "inactive: 65.8%"}
{"compound": "O=C(CCS(=O)(=O)c1ccccc1)Nc1ccc(F)cc1F", "growth rescue (activation)": "inactive: -16.5%"}
{"compound": "CCCC(=O)OCCNc1cc(SCc2ccco2)c2nonc2c1[N+](=O)[O-]", "Potency": "inconclusive: 8.91 µM [activator, partial curve, poor fit]"}
